From PMC4336329 (PLoS ONE, 2015)
In all, about 310,000 compounds went through this assay and about 14,000 (4.5%) showed an effect of 50% or more. The effect is printed as a negative number. This is one part of the list.

Molecular target: human ether-à-go-go-related gene (hERG) potassium channel (human, UniProt Q12809)
Test: primary screen, population patch clamp on CHO cells stably expressing hERG
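Note: peak tail current of the secondary pulse compared with the same well before compound.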

Sequence of human ether-à-go-go-related gene (hERG) potassium channel (Q12809 whole entry, looked up): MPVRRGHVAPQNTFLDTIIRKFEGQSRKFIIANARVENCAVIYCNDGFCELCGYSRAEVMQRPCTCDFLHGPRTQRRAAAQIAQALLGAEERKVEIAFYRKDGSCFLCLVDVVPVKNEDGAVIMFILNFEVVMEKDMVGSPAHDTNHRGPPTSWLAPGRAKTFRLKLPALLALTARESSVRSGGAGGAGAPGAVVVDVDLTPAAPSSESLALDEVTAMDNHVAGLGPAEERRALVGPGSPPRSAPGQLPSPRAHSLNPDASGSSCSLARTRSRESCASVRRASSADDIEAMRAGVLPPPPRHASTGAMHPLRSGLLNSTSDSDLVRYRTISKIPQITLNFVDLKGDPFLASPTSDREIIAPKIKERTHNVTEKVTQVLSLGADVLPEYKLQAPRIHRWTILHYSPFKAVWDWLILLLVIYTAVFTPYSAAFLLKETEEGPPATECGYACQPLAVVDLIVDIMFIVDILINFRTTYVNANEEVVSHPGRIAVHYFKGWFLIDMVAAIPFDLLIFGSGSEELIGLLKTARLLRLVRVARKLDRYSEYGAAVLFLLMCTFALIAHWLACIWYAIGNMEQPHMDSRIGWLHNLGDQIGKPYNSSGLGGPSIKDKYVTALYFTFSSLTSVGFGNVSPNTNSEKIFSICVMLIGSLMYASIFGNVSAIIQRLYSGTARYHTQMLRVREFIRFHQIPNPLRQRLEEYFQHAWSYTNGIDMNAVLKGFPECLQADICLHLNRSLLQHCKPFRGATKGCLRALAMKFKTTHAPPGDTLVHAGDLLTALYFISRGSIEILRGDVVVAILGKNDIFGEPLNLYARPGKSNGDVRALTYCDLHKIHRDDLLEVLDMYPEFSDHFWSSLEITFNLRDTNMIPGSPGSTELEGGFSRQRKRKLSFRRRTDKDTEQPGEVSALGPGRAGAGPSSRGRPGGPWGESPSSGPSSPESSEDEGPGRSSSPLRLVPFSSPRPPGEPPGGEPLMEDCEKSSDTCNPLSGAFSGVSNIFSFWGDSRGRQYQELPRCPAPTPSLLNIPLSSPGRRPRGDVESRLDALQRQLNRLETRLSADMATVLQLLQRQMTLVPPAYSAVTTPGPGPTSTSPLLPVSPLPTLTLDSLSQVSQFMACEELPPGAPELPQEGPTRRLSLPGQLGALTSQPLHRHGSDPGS

| SMILES | hERG current change (%, negative = inhibition) at 10uM [%] |
| --- | --- |
| CC(=O)c1ccc(S(=O)(=O)N2CCN(C(=O)c3ccc(N)c([N+](=O)[O-])c3)CC2)cc1 | -25.1 |
| CCN(CC)S(=O)(=O)c1ccc(N2CCN(C)CC2)c(NC(=O)COc2ccc(F)cc2Cl)c1 | -59 |
| CCN(CC)CCC/C(=N\O)C(O)(c1ccccc1)c1ccccc1 | 7.28 |
| O=C(CSc1ccc(Cl)cc1)Nc1nnc(-c2cccc([N+](=O)[O-])c2)s1 | 12.3 |
| CC(C)c1ccc2c(c1)C(c1cccs1)=NNC(c1ccncc1)=N2 | 12.7 |
| COc1ccc(N2CCN(C(=O)COc3ccc4c(C)cc(=O)oc4c3)CC2)cc1 | -16.5 |
| CCOC(=O)c1c(NC2OC(=O)c3c2ccc(OC)c3OC)sc(C(=O)OC(C)(C)C)c1C (stereo not drawn) | -0.684 |
| N#Cc1ccccc1OCCCN1CCC(Cc2ccccc2)CC1.O=C(O)C(=O)O | -80 |
| CCOC(Cn1ccc(=O)[nH]c1=O)OCC | 9.96 |
| CCN(C(=O)c1ccnn1C)c1ccccc1 | 4.75 |
| CCn1c(SCc2nc3ccccc3[nH]2)nnc1-c1ccccc1OC | -10.3 |
| COc1cc2[nH]c3c(OC)ncnc3c2cc1OC | 3.73 |
| Cc1cccc(C)c1C(=NCCCN(C)C)c1ccccc1.Cl | -22.4 |
| O=C(Cn1ncc2c3ccccc3n(Cc3ccccc3)c2c1=O)NCCCN1CCCC1 | -72.5 |
| CCS(=O)(=O)Nc1cc(C(=O)OC)ccc1C(=O)OC | 7.39 |
| CCOC(=O)c1ccccc1NC(=O)CSc1ncc(C(=O)OCC)c(N)n1 | 6.8 |
| CC(=O)c1ccc(S(=O)(=O)N2CCC3(CC2)OCCO3)cc1 | 4.55 |
| Cc1ccc(OCC(=O)NCCN2CCOCC2)cc1C | 7.92 |
| COc1ccc(OCC(=O)OCC(=O)Nc2ccc3[nH]c(=O)[nH]c3c2)cc1 | 3.56 |
| CCCCC(=O)NC1=C(C(=O)OC)SCC1 | 21.2 |
| NS(=O)(=O)c1cc(C(=O)NCCc2ccccn2)ccc1Cl | -39.5 |
| CC(C)N(C(=O)CSc1nnc(-c2cc3ccccc3cc2O)n1Cc1ccco1)C(C)C | -24.1 |

| SMILES | hERG current change (%, negative = inhibition) at 10uM [%] |
| --- | --- |
| O=C(NCc1ccccn1)c1cccc(S(=O)(=O)NCc2ccccc2)c1 | -3.88 |
| COc1cccc(SCc2noc(C(=O)NCCCN3CCOCC3)c2C(=O)NCCCN2CCOCC2)c1 | -4.2 |
| Cc1ccc(C(=O)NNC(=S)NC(=O)c2ccc(Cl)cc2Cl)cc1 | -4.97 |
| COc1ccc(C(=O)NCc2nnc(SCC(=O)Nc3cc(OC)ccc3OC)o2)cc1 | -27 |
| O=C(NC1CCCCC1)C1CCN(C(=O)NCc2ccccc2)CC1 | -2.05 |
| Cc1cccc(N2CCN(C(=O)CCS(=O)(=O)c3ccc4c(c3)NC(=O)CO4)CC2)c1C | 6.12 |
| N#C/C(=C/c1ccc(OCc2ccc(C(=O)O)cc2)cc1)C(=O)Nc1ccccc1 | 16.2 |
| O=C(COC(=O)c1n[nH]c2ccccc12)Nc1ccc(Cl)cc1[N+](=O)[O-] | 22.7 |
| CC(C)(C)C(=O)Nc1nc2cc3c(cc2s1)OCO3 | 20.1 |
| CCN(CC)CC.COc1ccccc1-n1c(=S)[nH]c2c(sc(=S)n2-c2ccccc2)c1=O | 16.9 |
| COc1ccc(C(=O)N(CCCO)C(C)C(=O)NC2CCCCC2)cc1OC (stereo not drawn) | -2.63 |
| Cc1ccc2c(c1)C(=O)CCCCC(=O)N2 | 8.33 |
| Cc1nc(N2CCN(c3ccccc3)CC2)[nH]c(=O)c1Cc1cccc2ccccc12 | 9.76 |
| O=C(NCc1ccc(F)cc1)c1ccc2c(=O)n3c(nc2c1)CCCCC3 | -36.7 |
| Br.N=c1n(CC(=O)c2cccs2)c2ccccc2n1Cc1ccccc1 | -48 |
| O=C(C1CCN(S(=O)(=O)c2cccc3cccnc23)CC1)N1CCN(c2ccccc2)CC1 | -16 |
| O=[N+]([O-])c1ccccc1/C=C/CN1CCCC(CO)C1 (stereo not drawn) | 1.93 |
| CCCCOC(=O)Nc1ccccc1C(N)=O | -5.36 |
| O=C1Nc2ccc(F)cc2C12Nc1ccccc1-c1nnc(SCc3ccccc3F)nc1O2 (stereo not drawn) | 5.23 |
| COc1ccc(C(C)=O)cc1Cc1c(O)[nH]c(=S)[nH]c1=O | 11.1 |
| Cn1ncc(N2CCN(S(=O)(=O)c3ccc(Br)cc3)CC2)c(Cl)c1=O | -43.9 |
| COc1ccc(Cc2nc3ccccc3[nH]2)cc1OC | 6.17 |

| SMILES | hERG current change (%, negative = inhibition) at 10uM [%] |
| --- | --- |
| CC(OC(=O)C1CCN(S(=O)(=O)c2ccc(Cl)cc2)CC1)C(=O)NC1CCCCC1C (stereo not drawn) | -1.5 |
| COc1ccccc1CNC(=O)CCCn1nc(C)c2c(C)n(-c3ccc(C)cc3)nc2c1=O | -35.8 |
| O=C(CNC(=O)COc1ccccc1)NCCN1CCOCC1 | 4.48 |
| CC(OC(=O)c1nn(C)c(=O)c2ccccc12)C(=O)NCc1ccc2c(c1)OCO2 (stereo not drawn) | -18.8 |
| Cc1onc(-c2ccccc2)c1C(=O)n1cccn1 | 12.3 |
| CCOC(=O)c1c(-c2ccccc2)oc2ccc(O)c(CN3CCOCC3)c12 | -37 |
| CCOc1ccc2nc(NC(=O)C3CCN(c4cnccn4)CC3)sc2c1 | -8.84 |
| CCN(CC(=O)Nc1ccc(C#N)c(Cl)c1)CC(=O)NC(C)(C)C | -9.96 |
| COc1ccc(CC(=O)NNC(=O)CN(C)S(=O)(=O)c2ccc(Cl)cc2)cc1OC | 0.252 |
| CCOC(=O)CNC(=O)CSc1nnc(-c2ccccc2)n1Cc1ccco1 | 5.91 |
| COc1ccccc1C(=O)Nc1nnc(-c2ccc(F)cc2)o1 | -11.9 |
| CC(C)C(O)C1CCN(Cc2nc(-c3cccs3)no2)CC1 (stereo not drawn) | 0.0552 |
| O=C(NC1=NCCS1)c1ccc(OCC2CCCO2)cc1 (stereo not drawn) | 1.71 |
| O=C(OCc1ccccc1)c1cnc(Cl)c(Cl)c1 | -7.52 |
| CC1CC(C)CN(C(=O)c2cccc(N3C(=O)c4ccccc4C3=O)c2)C1 (stereo not drawn) | -25.2 |
| N#Cc1ccc(OCc2cccc(S(=O)(=O)N3CCOCC3)c2)cc1 | -82.1 |
| NC(=O)CC(NC(=O)c1ccccc1)c1ccc(N2CCC(Cc3ccccc3)CC2)c([N+](=O)[O-])c1 (stereo not drawn) | 4.44 |
| CC1CC(C(F)F)n2nc(C(=O)Nc3sc4c(c3C#N)CCC(C(C)(C)C)C4)nc2N1 (stereo not drawn) | 13.2 |
| CC1CCCCN1C(=O)C1CCN(S(=O)(=O)c2ccc(-n3cnnn3)cc2)CC1 (stereo not drawn) | -61.5 |
| Cc1ccc(CNC(=O)CSc2nnc(CNC(=O)c3ccccc3)o2)cc1 | 5.55 |
| Cn1cc(CNC(=O)C2CCCCC2)cn1 | -0.619 |
| O=C(CCc1nc2ccccc2[nH]c1=O)OCC(=O)N1CCc2ccccc21 | 7.45 |

| SMILES | hERG current change (%, negative = inhibition) at 10uM [%] |
| --- | --- |
| COc1ccc(N2CCN(S(=O)(=O)CCNC(=O)c3ccco3)CC2)cc1 | -9.43 |
| CC(NC(=O)c1ccc(F)cc1Cl)C1CC2CCC1C2 (stereo not drawn) | 4.99 |
| CCc1ccc(C2CC(c3ccc(F)cc3)Nc3nc(N)nn32)cc1 (stereo not drawn) | -16.2 |
| COc1cc2c(cc1OC)C(C)NCC2.Cl (stereo not drawn) | 14.1 |
| COc1cc(C)c(S(=O)(=O)n2nnc3ccccc32)cc1C | 13.8 |
| Cc1ccc(C(=O)O/N=C(\c2ccccc2)c2cccnc2)cc1 | -18.7 |
| COc1ccc(C)cc1C1=CC(=O)C[C@H](c2ccc(F)cc2)C1 | -0.352 |
| CCc1nnc(NC(=O)C(c2ccccc2)c2ccccc2)s1 | 8.97 |
| CC1(OC(=O)CCc2ccccc2)C(=O)C=C2C=C(c3ccc(C#N)cc3)N(CCN3CCOCC3)C=C2C1=O (stereo not drawn) | -49.9 |
| Cc1ccc(S(=O)(=O)NNC(=O)/C=C/c2cccc(F)c2)cc1 | -6.52 |
| Cc1cnc(C(=O)OCC(=O)N2CCc3ccccc32)cn1 | -0.918 |
| Cc1ccc(S(=O)(=O)NC(=O)c2cc(C)n(C3CC3)c2C)cc1 | 12.8 |
| CC1(C)CC(=O)C2=C(C1)N(Cc1ccco1)C(=O)C2(NC(=O)c1cccnc1)C(F)(F)F (stereo not drawn) | -9.85 |
| COc1ccc(C(=O)N2CCN(c3ccc(NC(=O)c4cccs4)cc3)CC2)cc1 | -9.75 |
| Cn1cc(CN2CCCCC2CO)c(-c2ccc(Oc3ccccc3)cc2)n1 (stereo not drawn) | -49.6 |
| Cc1occc1C(=O)NNC(=S)NCc1ccccc1 | 6.47 |
| Cc1csc(/N=C/c2ccc([N+](=O)[O-])cc2)n1 | -14.1 |
| CSc1sc(C(=O)O)c2c1C(=O)CCC2 | 12.8 |
| COc1ccc(/C=C/CN2CCN(Cc3ccccc3)C(CCO)C2)cc1 (stereo not drawn) | -51.9 |
| CCOc1ccccc1N1CC(C(=O)Nc2ccc(S(=O)(=O)N3CCCCC3)cc2)CC1=O (stereo not drawn) | -3.91 |
| COc1ccc(/C=N/NC(=O)C(C)Sc2ccccn2)cc1[N+](=O)[O-] (stereo not drawn) | -7.8 |
